Some of the results follow. Sequences were assembled here from the parent chain. Inactive controls read about 0.05.
B1: TEV protease; numbered along this chain (parent)
chain: MGESLFKGPRDYNPISSSICHLTNESDGHTTSLYGIGFGPFIITNKHLFRRNNGTLVVQSLHGVFKVKDTTTLQQHLVDGRDMIIIRMPKDFPPFPQKLKFREPQREERICLVTTNFQTKSMSSMVSDTSCTFPSGDGIFWKHWIQTKDGQCGSPLVSTRDGFIVGIHSASNFTNTNNYFTSVPKNFMELLTNQEAQQWVSGWRLNADSVLWGGHKVFMVKPEEPFQPVKEATQL

Variants of: B1
Assay: raw area under fraction-flipped curve 0-4 h after induction (AUC4h, not background-subtracted), DNA-recorder readout of cleavage of the substrate (dimensionless); higher = more cleavage of the substrate by the protease variant
Details: temperature: 34 °C; time window: 0-4 h after rhamnose induction
Experimental: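 In vivo DNA recorder in E. coli TOP10(DE3) ΔrhaA at 34 °C. Each TEVp single-site mutant (parent TEVp 0) is paired with a single-site variant of the 7-mer TEVs (canonical ENLYFQ|S). The substrate sits between flexible linkers in a Bxb1-sfGFP-TEVs-SsrA fusion, so cleavage stabilises Bxb1 and speeds flipping of a recombination array, read by NGS. The value is the raw area under the fraction-flipped curve over 0-4 h after rhamnose induction (AUC4h), with ≥20 reads per time point. It is not background-subtracted; inactive controls average about 0.047.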
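Note: Bxb1 expression induced with 0.2% (w/v) L-rhamnose at OD600 near 0.5, cultures sampled hourly, flipped fraction per protease–substrate barcode pair counted by paired-end Illumina sequencing.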

Variant	area with substrate EALYFQS	area with substrate ECLYFQS	area with substrate EDLYFQS	area with substrate EELYFQS	area with substrate EGLYFQS	area with substrate EHLYFQS	area with substrate EILYFQS	area with substrate EKLYFQS	area with substrate EMLYFQS	area with substrate EQLYFQS	area with substrate ERLYFQS	area with substrate ESLYFQS	area with substrate ETLYFQS	area with substrate EVLYFQS	area with substrate EWLYFQS	area with substrate EYLYFQS	area with substrate ELLYFQS	area with substrate EPLYFQS	area with substrate EFLYFQS
I42Y	0.0592	0.0468	0.0629	0.0509	0.059	0.004	0.0507	0.0578	0.0549	0.0572	0.0357	0.0524	0.0463	0.0517	0.056	0.0487	–	–	–
H29E	0.14	0.102	–	0.104	–	–	0.105	0.117	0.135	0.142	0.116	0.0893	–	0.105	–	0.0036	0.0931	0.111	–
H29R	0.118	0.0894	–	0.0811	0.0661	0.0978	0.0814	0.111	0.107	0.0655	0.0654	0.0995	0.105	–	0.0406	–	–	0.104	–
K230V	0.108	0.0852	0.117	–	–	–	0.116	0.0863	–	0.117	0.077	0.104	0.113	0.084	0.101	–	0.0968	–	0.1
N206H	0.0632	0.0904	0.1	0.112	0.0863	0.118	0.0822	0.0832	0.104	0.12	0.118	0.0903	0.118	0.0773	0.0904	0.101	–	0.12	–
F140C	0.0613	0.059	–	0.0648	0.0726	0.0653	0.0649	0.0605	–	–	0.0684	0.066	–	0.0656	–	–	–	0.0619	–
P222S	0.0781	0.0787	0.0925	–	0.0666	0.0952	–	0.0915	0.0862	0.103	0.0863	0.0992	0.0954	0.1	0.0809	0.061	0.0761	0.106	–
F49G	0.0548	0.0462	0.0577	0.0567	0.05	0.0712	0.0616	0.0621	0.0476	0.059	0.0561	0.0547	–	0.0493	0.0618	–	–	0.0589	–
S17F	0.135	0.0873	0.103	0.11	0.0968	0.0918	0.0913	0.0768	0.103	0.0982	0.101	0.104	0.0871	–	0.0836	0.0836	–	0.117	–
S26C	0.108	0.0812	0.118	–	–	0.102	0.087	0.1	0.0822	0.112	0.0583	0.0881	0.112	0.0861	–	–	0.0991	–	0.0955
K100L	0.13	0.122	0.088	0.162	–	0.169	0.0988	–	0.0884	–	0.121	0.0309	–	0.0706	0.0923	–	–	0.106	–
H215D	0.0692	–	0.0584	0.0514	0.0526	–	0.0642	0.0635	–	0.0665	–	0.0613	0.059	0.062	0.0574	0.0726	–	0.0604	–
P94G	0.138	0.113	–	0.141	0.133	–	0.0941	0.142	0.151	0.165	0.108	0.116	–	0.115	0.0928	–	0.117	0.144	0.12
I85P	0.0866	0.0457	0.0383	–	–	0.0433	0.0253	0.0255	–	0.0828	0.0406	0.0358	–	0.0389	0.0235	–	–	0.0231	–
F49V	0.091	–	–	0.0615	0.0719	–	0.0535	0.0585	–	–	–	0.0644	0.0545	0.0574	0.0775	–	0.0551	0.0723	0.0752
F133E	0.122	–	–	0.138	–	0.121	0.114	0.175	–	0.136	0.0992	0.096	–	–	–	–	–	0.114	0.091
D161F	0.055	0.0542	0.0486	0.0397	–	0.0555	0.0606	0.0617	0.0527	0.0726	–	0.0602	–	0.0602	0.0501	0.0539	–	–	–
S4M	0.0366	0.0802	–	–	0.103	0.0904	0.0667	0.0804	0.0848	0.115	0.0761	0.0998	–	0.0685	0.0753	–	0.0888	–	0.0907
T114F	0.134	0.109	–	0.131	0.0977	0.126	–	0.0866	–	0.129	0.0905	0.107	0.11	0.0842	0.124	0.0939	–	0.104	–
F173A	0.079	0.0859	0.117	0.0973	–	0.0916	0.0875	0.0722	0.0849	0.102	0.0759	0.0767	–	–	0.0773	0.0643	–	0.0995	–
M83T	0.069	0.0675	0.0909	0.0797	0.0794	0.0742	–	–	0.0859	0.083	0.068	0.0742	–	0.0825	–	–	–	0.0711	–
T233H	0.122	0.0449	0.0718	–	0.151	0.0815	0.0978	0.101	–	0.119	–	–	–	0.1	–	–	–	–	0.0996
L56D	0.0427	–	0.0352	0.0453	0.0495	–	0.0406	0.0729	0.0521	0.0341	0.0479	0.0485	0.0436	0.0499	0.0505	0.051	0.0326	0.0465	0.0444
N45H	0.0599	0.0604	0.0555	–	–	0.0543	0.0575	0.09	0.0587	0.0565	0.0649	0.0566	0.0428	0.0547	0.0672	0.0681	0.0625	0.0597	–
M125N	0.108	0.122	0.114	0.154	0.0919	0.133	0.111	0.0957	0.0974	0.114	0.0997	0.088	0.117	0.102	0.0991	–	0.116	–	–
